{"source": "patent US20240287457A1", "about": "“COMPOSITIONS AND CELL CULTURE MEDIA FOR INCREASING NEUTROPHIL LIFESPAN” (THE CHILDREN'S MEDICAL CENTER CORPORATION, priority 2021, published 2024)", "system": "murine neutrophils", "experiment": "In vitro neutrophil death / survival of cultured murine neutrophils", "assay_type": "cell-based, mouse", "settings": "12.5 mM", "data": [{"smiles": "CC(=O)N[C@@H](CS)C(=O)O", "note": "[N-acetyl cysteine]", "values": [{"measurement": "Neutrophil survival after 3 days - normalized to fresh neutrophils (100)", "value": "<10"}]}]}
